PMC6212790
Some of the results follow. At the low end of the ranking the order means little.

Target: T1, GST-Rok-C97-191 (UniProt O34857)
T1 sequence: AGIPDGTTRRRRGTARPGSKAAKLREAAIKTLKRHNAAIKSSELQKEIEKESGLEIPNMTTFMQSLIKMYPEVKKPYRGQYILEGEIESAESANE
Test: protein binding microarray;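 also: rank score from −0.5 (least bound) to 0.5 (best bound)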
Details: Rok is a gene silencer of Bacillus subtilis; high values mean tight binding; most listed sequences are background and not binding sites; double strand, one strand shown

| Sequence | binding signal |
| --- | --- |
| GCGTAGTA | 0.178 E-score |
| AGACATAA | 0.121 E-score |
| TTAGCAAA | 0.177 E-score |
| ACGTCGGG | -0.253 E-score |
| AGCGGGAA | -0.26 E-score |
| CACTCACG | -0.012 E-score |
| CCCAGCCG | -0.245 E-score |
| CGTGGTTA | -0.0573 E-score |
| CCGAGCTC | -0.00832 E-score |
| CTTGGTTA | -0.0516 E-score |
| AAGCATCC | -0.133 E-score |
| ATTAGTAG | 0.319 E-score |
| CTTCCCTC | -0.0926 E-score |
| TATTGAGA | 0.0663 E-score |
| CTTCGACA | 0.062 E-score |
| AAGATCAC | 0.221 E-score |
| AGGAGACA | -0.179 E-score |
| ACGAAATG | 0.155 E-score |
| CGGTTGCC | -0.267 E-score |
| GTGATGAA | 0.0495 E-score |
| CTCGAAAC | 0.104 E-score |
| CCATTAGC | 0.0566 E-score |

| Sequence | binding signal |
| --- | --- |
| CGACATCA | -0.0626 E-score |
| CCAGATGG | -0.16 E-score |
| CCAGGAAA | -5.76e-05 E-score |
| CGGTCCTA | -0.0529 E-score |
| ATTGAATA | -0.00104 E-score |
| CAGTCGTA | 0.0418 E-score |
| ATTCCCAG | 0.0654 E-score |
| ACGTCCGC | -0.117 E-score |
| CAGTAATC | -0.0737 E-score |
| AAATAACT | 0.293 E-score |
| AGGTCATA | -0.0971 E-score |
| CTTTTAGA | -0.0974 E-score |
| CACCGTGC | -0.169 E-score |
| CAATCGAG | 0.0453 E-score |
| AACGGGAC | 0.0504 E-score |
| GGGAAGTA | 0.257 E-score |
| AGTTAGAA | 0.208 E-score |
| TCCGAGCA | 0.113 E-score |
| GACTATTA | 0.165 E-score |
| AGGTAGTC | 0.0784 E-score |
| CCGAAAAG | 0.128 E-score |
| CATGTCGC | -0.0085 E-score |

| Sequence | binding signal |
| --- | --- |
| ACAGACTC | 0.00978 E-score |
| TGGAGCCA | -0.182 E-score |
| GGACTGCC | -0.361 E-score |
| ATTTCCGG | -0.113 E-score |
| GGCTCAGA | -0.136 E-score |
| GCTTAGTA | 0.105 E-score |
| CGCTAGAA | 0.247 E-score |
| CGACATCG | -0.000361 E-score |
| CCGTAAGG | -0.329 E-score |
| GGGTATCA | -0.0828 E-score |
| ACGTGACG | -0.0727 E-score |
| GACAATAA | 0.0721 E-score |
| AAATTGCA | 0.035 E-score |
| ATGGGATG | 0.0334 E-score |
| ATCTCAGG | 0.0237 E-score |
| ATTCAAAG | -0.0854 E-score |
| CAGGCCGG | -0.24 E-score |
| TATGTTGA | 0.0507 E-score |
| GCCGCGTA | -0.133 E-score |
| AGACAGGG | -0.206 E-score |
| GCGGGCCA | -0.372 E-score |
| CCATGTGC | -0.0596 E-score |

| Sequence | binding signal |
| --- | --- |
| CCTTATTA | 0.0213 E-score |
| CGCGGCCG | -0.292 E-score |
| GCACGCGA | -0.193 E-score |
| AGAAATGC | 0.0185 E-score |
| ACCGTTCT | 0.0694 E-score |
| AACGAACT | -0.114 E-score |
| AAAAATCA | 0.0443 E-score |
| CGCCCCAA | -0.198 E-score |
| CCAAAGAC | -0.0683 E-score |
| TGTCATAA | 0.0845 E-score |
| GATGCTCC | -0.165 E-score |
| ATTATCCC | 0.218 E-score |
| ATGGGTAG | 0.22 E-score |
| CTAATATA | 0.36 E-score |
| TACTCACA | -0.0115 E-score |
| GAAAGTAC | 0.35 E-score |
| AAGGAGAT | 0.0504 E-score |
| GAATCCCA | -0.125 E-score |
| AGCACCAC | -0.205 E-score |
| ATGATCTG | -0.0834 E-score |
| GCTGCTCC | -0.268 E-score |
| GTCATCGA | 0.105 E-score |

| Sequence | binding signal |
| --- | --- |
| GTGAGCGA | -0.0637 E-score |
| ACGCGTGA | 0.0344 E-score |
| ACAGTGCC | 0.0698 E-score |
| GCAATTGA | 0.0573 E-score |
| AGAAACAA | 0.225 E-score |
| AGTACATG | 0.181 E-score |
| TCCGTCGA | -0.101 E-score |
| GCTTCAAA | -0.321 E-score |
| ACGTGATC | 0.0315 E-score |
| CCAGGTAG | 0.0315 E-score |
| AGAGGTGG | -0.189 E-score |
| AGTGGAAC | -0.0378 E-score |
| ATCCGGCC | -0.219 E-score |
| ATATGAGA | 0.122 E-score |
| CAGGCGCG | -0.094 E-score |
| ATAAATCG | 0.233 E-score |
| CTGAGCAA | 0.0266 E-score |
| TAGGTTGA | 0.0242 E-score |
| GTATGAGA | 0.07 E-score |
| CAAGAGGA | -0.124 E-score |
| AAAGACGC | -0.201 E-score |
